Laboratory results published in PubChem BioAssay AID1347120 (National Center for Advancing Translational Sciences (NCATS), 2019).
In all, about 390,000 compounds went through this assay and about 930 (0.24%) were called active. The inconclusive results got no clear call from the source; some entries with a clear call stand among them for comparison. Calls come from the whole dose curve; as a rule, active = well fitted activation curve with a large enough effect; inconclusive = small, poorly fitted or top-dose-only effect; inactive = no such curve, though single readings can be large or run the other way. Where the call is inconclusive, the potency comes from a doubtful curve fit.

Assay: qHTS for Suppressors of FUS Proteinopathy: Primary screen using FUS-linked yeast assay; note: nearly all actives have a fitted effect of over 55% in size;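 for growth rescue (activation): plate controls were DMSO vehicle for no effect and reference control for full effect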
Details: S. cerevisiae FUS-expressing, OD600, 24 h; Potency: growth rescue; growth rescue (activation): at 76.6 µM (top of the series)
In short: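 Absorbance at 600 nm, taken 24hr after compound addition, measured rescue of FUS-yeast growth at 30C. Induction used 2% galactose with seeding at OD 0.005. Controls: CP55940 from 92uM final, DMSO only.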
Potency is the fitted concentration of half-maximal effect; tags give direction and shape of the fitted curve.

Structure (SMILES)	growth rescue (activation)	Potency
CCOCCn1ccc2c(OCC(=O)Nc3cccc(F)c3)cccc2c1=O	inactive: 16.1%	
CCOc1cc(-c2ccc(OC(=O)c3ccccc3)c(OC)c2)cc(=O)c2c(C)oc(C)c12		inconclusive: 15.8 µM [activator, partial curve, poor fit]
COc1ccc(C(c2nnnn2CC2CCCO2)N2CCN(c3cccc(C)c3C)CC2)cc1 (stereo not drawn)		inconclusive: 22.4 µM [activator, partial curve]
CCC(C)Sc1ccc([C@H]2N[C@@](Cc3ccccc3)(C(=O)OC)[C@H]3C(=O)N(CC)C(=O)[C@@H]23)cc1 (stereo partly drawn)		inconclusive: 39.8 µM [activator, single point]
CC(=O)c1ccccc1OCCn1nnc(-c2ccc(C)cc2)n1	inactive: 27.8%	
Cc1cc(Cl)ccc1OCC(=O)N1CC(C)CC(C)C1 (stereo not drawn)	inactive: 27.9%	
CCOc1ccc(NC(=O)CC2C(=O)N(c3ccccc3)C(=S)N2Cc2ccccn2)cc1 (stereo not drawn)		inconclusive: 35.5 µM [activator, partial curve, poor fit]
COc1cc(OC)c(-n2cc(-c3ccc(OC)c(OC)c3)[nH]c2=S)cc1Cl		inconclusive: 20 µM [activator, partial curve, poor fit]
O=C(c1cc(F)ccc1F)N1CCC(Oc2cccnc2)CC1	inactive: -14.8%	
COc1ccc(C(NC(=O)CN2C(=O)NC3(CCc4ccccc43)C2=O)c2ccccc2)cc1 (stereo not drawn)		inconclusive: 35.5 µM [activator, single point]
CCCCn1c(N)c(N(CCC(C)C)C(=O)COC(=O)c2ccc([N+](=O)[O-])s2)c(=O)[nH]c1=O	inactive: 35.2%	
CCOc1cc(NC(=S)Nc2ccccc2OC)c(OCC)cc1NC(=O)c1ccccc1C		inconclusive: 25.1 µM [activator, single point]
CC(C)c1ccc(NC(=O)CCS(=O)(=O)c2ccc3c(c2)CC(=O)N3C)cc1	inactive: 20.7%	
COc1ccc([C@@H]2[C@@H]3C(=O)N(C(C)(C)C)C(=O)[C@@H]3[C@]3(Cc4ccc(Cl)cc4)C(=O)N(c4ccc(OC)cc4)C(=O)N23)cc1		inconclusive: 7.94 µM [activator, full curve]
CCOc1ccc2[nH]c(C(=O)N/N=C/c3ccccc3OC)cc2c1		inconclusive: 20 µM [activator, single point]
O=C1CSC(=Nc2ccccc2Cl)N1	inactive: 18.4%	
COc1ccc(CCNC(=O)Cn2cc(S(=O)(=O)Cc3ccc(F)cc3)c3ccccc32)cc1OC		inconclusive: 17.8 µM [activator, partial curve]
O=C(NC1CCCCC1)c1ccc2c(c1)N(Cc1ccccc1Cl)C(=O)c1ccccc1S2	inactive: 35.1%	
O=C(COc1ccc(Cl)cc1)NCCSCc1cccc(Cl)c1	inactive: 22.7%	
Cc1cn([C@@H](CCCCNC(=O)OC(C)(C)C)C(=O)NCCCCCCCCCCC(=O)N2CCN(C(=O)OC(C)(C)C)CC2)nn1		inconclusive: 7.94 µM [activator, full curve]
CCOc1ccc(S(=O)(=O)Nc2cccc(-c3ccc(N4CCC(C)CC4)nn3)c2)cc1		inconclusive: 35.5 µM [activator, single point]

Structure (SMILES)	growth rescue (activation)	Potency
Cc1cc(C)cc(C(=O)NC(CC(N)=O)c2ccc(N3CCC(Cc4ccccc4)CC3)c([N+](=O)[O-])c2)c1 (stereo not drawn)		inconclusive: 44.7 µM [activator, single point]
Cc1ccc(N2C(=O)N3[C@H](c4ccc(F)cc4)[C@@H]4C(=O)N(C5CCCCC5)C(=O)[C@@H]4[C@]3(C)C2=O)cc1		inconclusive: 25.1 µM [activator, single point]
O=C(Nc1ccc(F)cc1F)N1CCCCCC1	inactive: 10.3%	
Cc1onc(-c2ccccc2Cl)c1C(=O)Nc1sc2c(c1C(N)=O)CCC(C)C2 (stereo not drawn)		inconclusive: 50.1 µM [activator, partial curve, poor fit]
COc1ccc(/C=C(\C#N)c2nc3ccccc3c(=O)[nH]2)cc1OC	inactive: 40.4%	
COc1ccccc1CNC(=O)COCc1cc(-c2ccc3c(c2)OCO3)on1		inconclusive: 35.5 µM [activator, single point]
CCOC(=O)CCc1c(C)nc2cc(-c3ccc(Cl)cc3)[nH]n2c1=O		inconclusive: 11.2 µM [activator, single point]
CCOc1ccc(-n2c(O)c(/C=N/NC(=O)C3COc4ccccc4O3)c3ccccc3c2=O)cc1 (stereo not drawn)		inconclusive: 22.4 µM [activator, partial curve, poor fit]
Cc1nnc(SCc2nc3ccccc3s2)n1-c1ccccc1		inconclusive: 25.1 µM [activator, single point]
CN1C(=O)c2cccc(NCCCN3C(=O)c4ccccc4C3=O)c2C1=O		inconclusive: 11.2 µM [activator, single point]
CCOc1ccc(-c2cc(C(=O)Nc3ccc4c(c3)OCCO4)c3ccccc3n2)cc1		inconclusive: 17.8 µM [activator, partial curve]
COc1ccc(-c2[nH]ncc2-c2ccc(Cl)cc2)c(O)c1		inconclusive: 3.16 µM [activator, full curve]
CN(C)c1ccc(-c2ccnc3c2CC(C)(C(=O)Nc2ccc(Cl)c(C(F)(F)F)c2)O3)cc1 (stereo not drawn)		inconclusive: 11.2 µM [activator, single point]
COc1ccc(S(=O)(=O)N(C)C[C@H]2Oc3c(NC(=O)NC4CCCCC4)cccc3C(=O)N([C@H](C)CO)C[C@@H]2C)cc1		inconclusive: 35.5 µM [activator, single point]
CC(C)CN(C(=O)CSc1nnc(-c2ccco2)o1)c1c(N)n(Cc2ccccc2)c(=O)[nH]c1=O		inconclusive: 22.4 µM [activator, partial curve, poor fit]
Cc1oc2c(CN3CCCC3)c(O)ccc2c(=O)c1Oc1ccccc1Br	inactive: 6.63%	
CCN(C(=O)CSc1nc2cc(C(=O)O)ccc2c(=O)n1Cc1ccccc1)c1ccccc1		inconclusive: 35.5 µM [activator, single point]
CCCSc1nc(N)nc(-c2cccs2)c1C#N	inactive: -7.73%	
CCOC(=O)c1sc(N)c(C#N)c1COC(=O)CNC(=O)c1cc(OC)c(OC)c(OC)c1		inconclusive: 22.4 µM [activator, partial curve, poor fit]
CCN(CC)C(=O)c1ccc(/C=C/c2c[nH]c3ccccc23)[n+](C)c1		inconclusive: 2.24 µM [activator, full curve, poor fit]
COc1ccc(C2OCC(C)([N+](=O)[O-])CO2)cc1 (stereo not drawn)	inactive: 5.22%	

Structure (SMILES)	growth rescue (activation)	Potency
CCOC(=O)N1CCN(C(=O)c2ccc3nc4ccc(Cl)cc4c(=O)n3c2)CC1	inactive: 6.49%	
CCCCN(C)C(=O)CSc1nc2ccccc2nc1Cc1ccc(C)cc1		inconclusive: 28.2 µM [activator, single point]
Cc1cc(C)c(NC(=O)c2sc3nc4c(cc3c2N)C(=O)CC(C)(C)C4)c(C)c1		inconclusive: 22.4 µM [activator, single point]
Cc1cc(C)c2c(c1)/C(=C/C(=O)c1ccc(Br)s1)C(=O)N2	inconclusive: 67.1% [activator]	
CCCCC1Cc2[nH]c(=S)[nH]c(=O)c2C(c2ccc3ccccc3c2)O1 (stereo not drawn)		inconclusive: 50.1 µM [activator, single point]
CCOc1ccc(Nc2c(S(=O)(=O)c3ccc(C)cc3)cnc3ccc(F)cc23)cc1		inconclusive: 35.5 µM [activator, single point]
Cc1ccc(S(=O)(=O)N(C)C)cc1NC(=S)NC12CC3CC(CC(C3)C1)C2		inconclusive: 44.7 µM [activator, single point]
Cc1ccc(-c2csc(C(C#N)=C(O)CN3CCN(C(=O)c4ccco4)CC3)n2)cc1		active: 28.2 µM
COc1ccc(S(=O)(=O)N(C)C[C@H]2Oc3ccc(NC(=O)NC(C)C)cc3C(=O)N([C@H](C)CO)C[C@@H]2C)cc1		inconclusive: 6.31 µM [activator, full curve]
COC(=O)c1ccc([C@H]2Nc3ccc(S(=O)(=O)Nc4ccc(F)cc4)cc3[C@H]3C=CC[C@H]32)cc1		inconclusive: 35.5 µM [activator, single point]
CCCOc1ccc(C(=O)N2CCN(c3ccc(N)cc3Cl)CC2)cc1		inconclusive: 22.4 µM [activator, single point]
Cc1ccc(S(=O)(=O)N2CCCc3cc(NS(=O)(=O)c4ccccc4)ccc32)cc1	inactive: 41.4%	
CCOC(=O)c1ccc(N2CCN(c3ccc(F)cc3)CC2)c(NC(=O)Nc2ccc(CC)cc2)c1	inactive: -0.938%	
O=C(c1cc(-c2cccs2)on1)N1CCN(c2ccccc2)CC1	inactive: 21.5%	
CCOc1ccc(CN2C(=O)c3ccccc3Sc3ccc(C(=O)NCCCN4CCOCC4)cc32)cc1		inconclusive: 12.6 µM [activator, partial curve, poor fit]
O=C(Cn1cc(C(F)(F)F)cc(Cl)c1=O)NCCc1ccc(Cl)cc1Cl		inconclusive: 3.98 µM [activator, partial curve, poor fit]
CNCc1cn2cc(Cl)ccc2n1	inactive: 28.4%	
COCCN(C(=O)CN1CCc2ccccc21)c1c(N)n(Cc2ccccc2)c(=O)[nH]c1=O		inconclusive: 50.1 µM [activator, single point]
C=CC[C@@H](CC(=O)N[C@@H](CO)Cc1ccccc1)C(=O)N[C@@H](C)COC(=O)[C@@H](CC=C)Cc1ccc(F)cc1		active: 17.8 µM
Cc1ccc(CC(=O)Nc2cc([N+](=O)[O-])ccc2F)cc1	inactive: -6.51%	
CC[n+]1c(/C=C2\C=C(C)CC(C)C2)sc2ccccc21 (stereo not drawn)		inconclusive: 31.6 µM [activator, partial curve, poor fit]
